Reference: the RNAGym collection of RNA variant scans (doi:10.1093/nar/gkz1192)
The source gives no read counts; variants with many changes may rest on few reads.

B1: CPEB3 Ribozyme (parent)
chain: UAACAGGGGGCCACAGCAGAAGCGUUCACGUCGCAGCCCCUGUCAGAUUCUGGUGAAUCUGCGAAUUCUGCUGUAUAUCUC

Variants of: B1
Assay: self-cleavage, relative activity (ratio to wild type); higher = more cleavage; in vitro, sequencing
How it was run: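 Libraries of CPEB3 self-cleaving ribozyme mutants came from rounds of error-prone PCR and carried barcodes, which DNA sequencing matched to variants. In vitro transcription used T7 RNA polymerase at 37°C for 5 hours, with a further 15 min in DNase I before EDTA stopped the reaction; the ribozymes cleaved during both steps. The RNA was reverse transcribed with template switching and sequenced on Illumina. Relative activity is the cleaved/total read fraction of a variant divided by that of the unmutated ribozyme, averaged over three batches with at least 5 reads.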

**Q.** With UAACAGGGGGCCACAGCAGAAGCGUUCACGUCGCAGCCCCGGUCAGAUUCUGGUGAAUCCGCGAAUUCUGCUGUAUAACUC [U41G U60C U78A] as the variant, how does the self-cleavage read?
**A.** Its self-cleavage is 0.1.

**Q.** For UAACAGGGGGCCACAGCAGAAGCGUUCACGUCGCAGCCCCGGUCAGAUUCUGGUGAAUCUGCGAAUUCCGCUGCAUAUCUC [U41G U69C U74C], which self-cleavage is on record?
**A.** Its self-cleavage is 0.22.

**Q.** Which self-cleavage does the source give for UAACAGGGGGCCACAGCAGAAGCGUUCACGUCGCAGCCCCUAUCGGAUUCUGGUGAAUCUGCGGAAUCUGCUGUAUAUCUC [G42A A45G A64G U66A] here?
**A.** Its self-cleavage is 0.13.

**Q.** With UAACAGGGGGCCACAGCAGAAGCGUUCACGUCGCAGCCCCUAUCGGAUCCUGGUGAAUCUGCGAAUUCUGCUGUAUAUCUC [G42A A45G U49C] as the variant, how does the self-cleavage read?
**A.** Its self-cleavage is 0.14.

**Q.** For UAACAGGGGGCCACAGCAGAAGCGUUCACGUCGCAGCCCCUAUCGGAUUCUGGUGAAGCUGUGAAUUCUGCUGUAUACCUC [G42A A45G U58G C62U U78C], which self-cleavage is on record?
**A.** The self-cleavage was 0.11.

**Q.** With UAACAGGGGGCCACAGCAGAAGCGUUCACGUCGCAGCCCCUAUCGGAUUCUGGUGAAUCUGCGAAUUCUGCUGCAUACCUC [G42A A45G U74C U78C] as the variant, how does the self-cleavage read?
**A.** The self-cleavage was 0.09.

**Q.** For UAACAGGGGGCCACAGCAGAAGCGUUCACGUCGCAGCCCCUAUCAGAUUCUAGUGCAUCUGCGAAUUCUGCUGUAUAUCUC [G42A G52A A56C], which self-cleavage is on record?
**A.** The self-cleavage was 0.16.

**Q.** With UAACAGGGGGCCACAGCAGAAGCGUUCACGUCGCAGCCCCUACCUGAUUCUGGUGAAUCUGCGAAUUCUGCUGUAUAUCUC [G42A U43C A45U] as the variant, how does the self-cleavage read?
**A.** Its self-cleavage is 0.2.

**Q.** For UAACAGGGGGCCACAGCAGAAGCGUUCACGUCGCAGCCCCUACCAGAUUCUGGUGAAUCCGCGAAUUCUGCUGUAUAUCUC [G42A U43C U60C], which self-cleavage is on record?
**A.** The self-cleavage was 0.09.

**Q.** For UAACAGGGGGCCACAGCAGAAGCGUUCACGUCGCAGCCCCUACCAGAUUCUGGUGAAUCUGCGAAUACUGCUGUAUAUCUC [G42A U43C U67A], which self-cleavage is on record?
**A.** The self-cleavage was 0.24.

**Q.** With UAACAGGGGGCCACAGCAGAAGCGUUCACGUCGCAGCCCCUACCAGAUUCUGGUGAAUCUGCGAAUCCUGCUGUAUAUCUC [G42A U43C U67C] as the variant, how does the self-cleavage read?
**A.** Its self-cleavage is 0.1.

**Q.** For UAACAGGGGGCCACAGCAGAAGCGUUCACGUCGCAGCCCCUAUCAGAUCCUGGUGGAUCUGCGAAUUCAGCUGUAUAUCUC [G42A U49C A56G U69A], which self-cleavage is on record?
**A.** Its self-cleavage is 0.25.

**Q.** Which self-cleavage does the source give for UAACAGGGGGCCACAGCAGAAGCGUUCACGUCGCAGCCCCUAUCAGAUUCAGCUGAAUCUGCGAAUUCUGCUGUAUAUCUC [G42A U51A G53C] here?
**A.** Its self-cleavage is 0.17.

**Q.** Which self-cleavage does the source give for UAACAGGGGGCCACAGCAGAAGCGUUCACGUCGCAGCCCCUAUCAGAUUCGGGUGAAUCUGCGAAUCCUGCUGUAUAUCUC [G42A U51G U67C] here?
**A.** Its self-cleavage is 0.19.

**Q.** With UAACAGGGGGCCACAGCAGAAGCGUUCACGUCGCAGCCCCUAUCAGAUUCUGGCGAAUCUGCGAAUUUCGCUGUAUAUCUC [G42A U54C C68U U69C] as the variant, how does the self-cleavage read?
**A.** Its self-cleavage is 0.17.

**Q.** Which self-cleavage does the source give for UAACAGGGGGCCACAGCAGAAGCGUUCACGUCGCAGCCCCUCACGGAUUCUGGUGAAUCUGCGAAUUCUGCCGUAUAUCUC [G42C U43A A45G U72C] here?
**A.** The self-cleavage was 0.21.

**Q.** For UAACAGGGGGCCACAGCAGAAGCGUUCACGUCGCAGCCCCUCUCAGAUACUGGUGAAUCUGCGAACUCUGCUGUAUAUCUC [G42C U49A U66C], which self-cleavage is on record?
**A.** Its self-cleavage is 0.16.

**Q.** With UAACAGGGGGCCACAGCAGAAGCGUUCACGUCGCAGCCCCUCUCAGAUUCUGGUGAACCUGCGAAUUCUGCUGGAUACCUC [G42C U58C U74G U78C] as the variant, how does the self-cleavage read?
**A.** The self-cleavage was 0.25.

**Q.** For UAACAGGGGGCCACAGCAGAAGCGUUCACGUCGCAGCCCCUUUCAGAUUCUGGUGAUUCUGCGAUUUCUGCCGUAUAUCUC [G42U A57U A65U U72C], which self-cleavage is on record?
**A.** Its self-cleavage is 0.35.

**Q.** For UAACAGGGGGCCACAGCAGAAGCGUUCACGUCGCAGCCCCUUUCAGAUUCUGGUGAAUCCGCGAAUUCUGCCGUAUACCUC [G42U U60C U72C U78C], which self-cleavage is on record?
**A.** The self-cleavage was 0.21.

**Q.** For UAACAGGGGGCCACAGCAGAAGCGUUCACGUCGCAGCCCCUGACGGAUUCUGGUGAUUCUCCGAAUUCUGCUGUAUAUCUC [U43A A45G A57U G61C], which self-cleavage is on record?
**A.** The self-cleavage was 0.17.

**Q.** With UAACAGGGGGCCACAGCAGAAGCGUUCACGUCGCAGCCCCUGACGGAUUCUGGUGAUUCCGCGAAUUCUGCUGUAUAUCAC [U43A A45G A57U U60C U80A] as the variant, how does the self-cleavage read?
**A.** The self-cleavage was 1.18.

**Q.** Which self-cleavage does the source give for UAACAGGGGGCCACAGCAGAAGCGUUCACGUCGCAGCCCCUGACGUAUACUGGUGAAUCUGCGAAUUCUGCUGUAUAUCUC [U43A A45G G46U U49A] here?
**A.** Its self-cleavage is 0.09.

**Q.** With UAACAGGGGGCCACAGCAGAAGCGUUCACGUCGCAGCCCCUGACGGAUUCCGGUGAAUCUGCGAAUUCUGCUGUAUAUCUC [U43A A45G U51C] as the variant, how does the self-cleavage read?
**A.** Its self-cleavage is 0.93.

**Q.** Which self-cleavage does the source give for UAACAGGGGGCCACAGCAGAAGCGUUCACGUCGCAGCCCCUGACGGAUUCUGGUGAAUCUGCGAACUCUGCUGUAUAUCUC [U43A A45G U66C] here?
**A.** The self-cleavage was 0.38.

**Q.** With UAACAGGGGGCCACAGCAGAAGCGUUCACGUCGCAGCCCCUGACGGAUUCUGGUGAAUCUGCGAAUUCUGCAGUAUAUCUC [U43A A45G U72A] as the variant, how does the self-cleavage read?
**A.** Its self-cleavage is 0.28.

**Q.** With UAACAGGGGGCCACAGCAGAAGCGUUCACGUCGCAGCCCCUGACUGAUUCUGGUGAAUCUGCGAAUUCUGCCGUAUAUCUC [U43A A45U U72C] as the variant, how does the self-cleavage read?
**A.** The self-cleavage was 0.63.

**Q.** With UAACAGGGGGCCACAGCAGAAGCGUUCACGUCGCAGCCCCUGACAGGUUCUGGUGUAUCUGCGAAUCCUACUGUAUACCUC [U43A A47G A56U U67C G70A U78C] as the variant, how does the self-cleavage read?
**A.** Its self-cleavage is 0.25.

**Q.** With UAACAGGGGGCCACAGCAGAAGCGUUCACGUCGCAGCCCCUGACAGGUUCUGAUGAAUCUGCGAAUUCUGCUGUAUAUCUC [U43A A47G G53A] as the variant, how does the self-cleavage read?
**A.** The self-cleavage was 1.2.

**Q.** With UAACAGGGGGCCACAGCAGAAGCGUUCACGUCGCAGCCCCUGACAGGUACUGGUGGAUCUGCGAAUUCUGCUGUAUAUCCC [U43A A47G U49A A56G U80C] as the variant, how does the self-cleavage read?
**A.** Its self-cleavage is 0.31.

**Q.** With UAACAGGGGGCCACAGCAGAAGCGUUCACGUCGCAGCCCCUGACAGAUUCUGGUGUAUCUGCGGAUUCUGCUGUAUAUCUC [U43A A56U A64G] as the variant, how does the self-cleavage read?
**A.** The self-cleavage was 0.56.

**Q.** With UAACAGGGGGCCACAGCAGAAGCGUUCACGUCGCAGCCCCUGACAGAUUCUGGUGAGUCUGCGGACUCUGCUGUAUAUCUC [U43A A57G A64G U66C] as the variant, how does the self-cleavage read?
**A.** The self-cleavage was 0.24.

**Q.** For UAACAGGGGGCCACAGCAGAAGCGUUCACGUCGCAGCCCCUGACAGAUUCUGGUGAGUCUGCGAAUUCUGCAGUAUAUCUC [U43A A57G U72A], which self-cleavage is on record?
**A.** Its self-cleavage is 0.66.

**Q.** For UAACAGGGGGCCACAGCAGAAGCGUUCACGUCGCAGCCCCUGACAGAUUCUGGUGAAUCUGCGGAAUCUGCAGUAUAUCUC [U43A A64G U66A U72A], which self-cleavage is on record?
**A.** The self-cleavage was 0.16.
